# According to the RNAGym collection of RNA variant scans (doi:10.1093/nar/gkz1192):
# The source gives no read counts; variants with many changes may rest on few reads.
# B1: CPEB3 Ribozyme (parent)
# chain: UAACAGGGGGCCACAGCAGAAGCGUUCACGUCGCAGCCCCUGUCAGAUUCUGGUGAAUCUGCGAAUUCUGCUGUAUAUCUC
# Variants of: B1
# Test: self-cleavage, relative activity (ratio to wild type); higher = more cleavage; in vitro, sequencing
# Procedure, shortened: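 Barcoded CPEB3 ribozyme mutants, produced by rounds of error-prone PCR, self-cleaved while being transcribed with T7 RNA polymerase for 5 hours at 37°C and during a subsequent 15 min DNase I step before EDTA was added. Sequencing of template-switched cDNA on Illumina gave cleaved and total reads, and DNA sequencing assigned barcodes to variants. Each variant's relative activity is its cleaved/total read fraction divided by the unmutated ribozyme's fraction, averaged across three batches. A variant needed a minimum of 5 reads.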
row,Variant,self-cleavage
1,UAACAGGGAGCCACAGCAGAAGCGUUCACGUCGCAGCCCCUGACAGAUUCUGGUGAGUCUGCGAAUUCUGCUGUAUACCUC,0.24
2,UAACAGGGAGCCACAGCAGAAGCGUUCACGUCGCAGCCCCUGACAGACUCUGGUGAAUCUGCGAAUUCUGCCGUACAUCUC,0.05
3,UAACAGGGAGCCACAGCAGAAGCGUUCACGUCGCAGCCCCUGACAGAUUCUGGCGGAUCCGCGAAUUCAGCAGUAUAUCUC,0.04
4,UAACAGGGAGCCACAGCAGAAGCGUUCACGUCGCAGCCCCUGCCAGGUCCUGGUGAAUCUGCGAAUUCUGCUGUAUAUCUC,0.38
5,UAACAGGGAGCCACAGCAGAAGCGUUCACGUCGCAGCCCCUGUCAGAAUCUGGUGAAUCCGCGAAUUCUGCUGUAUAUUUC,0.03
6,UAACAGGGAGCCACAGCAGAAGCGUUCACGUCGCAGCCCCUGUCAGACUCUGGUGAAUCUGCGAAAUCUGCAGUAUAUCUC,0.08
7,UAACAGGGAGCCACAGCAGAAGCGUUCACGUCGCAGCCCCUGUCAGACUCUGGUGAAUCUGCGAAUUCUGCUGUAUAUCCC,0.07
8,UAACAGGGAGCCACAGCAGAAGCGUUCACGUCGCAGCCCCUGUCAGAUACUGGUGAAUCUGCGAACUCUGCUGUAUAUCUC,0.16
9,UAACAGGGAGCCACAGCAGAAGCGUUCACGUCGCAGCCCCUGUCAGAUCCUGGUGGAUCAGCAAACUCUGCUGUAUAUCUC,0.12
10,UAACAGGGAGCCACAGCAGAAGCGUUCACGUCGCAGCCCCUGUCAGAUCCUGGUGGAUCUGCGAACUCUGCUGUAUAUCUC,0.09
11,UAACAGGGAGCCACAGCAGAAGCGUUCACGUCGCAGCCCCUGUCAGAUCCUGGUGAGUCUGCGAAUUCCGCUGUAUAUCUC,0.06
12,UAACAGGGAGCCACAGCAGAAGCGUUCACGUCGCAGCCCCUGUCAGAUCCUGGUGAAACUGCGAGUUCUGCUGUAUAUCUC,0.12
13,UAACAGGGAGCCACAGCAGAAGCGUUCACGUCGCAGCCCCUGUCAGAUCCUGGUGAAUCCGCGAAUUCUGCUGUAUAUCUC,0.06
14,UAACAGGGAGCCACAGCAGAAGCGUUCACGUCGCAGCCCCUGUCAGAUUCAGGUGAAUCUGCGUAUUCUGCUGUAUAUCUC,0.06
15,UAACAGGGAGCCACAGCAGAAGCGUUCACGUCGCAGCCCCUGUCAGAUUCAGGUGAAUCUGUGAAUUCAGCUGUAUAACUC,0.04
16,UAACAGGGAGCCACAGCAGAAGCGUUCACGUCGCAGCCCCUGUCAGAUUCUGGAGAAUCUGCACAUUCUGCUGUAUACCUC,0.04
17,UAACAGGGAGCCACAGCAGAAGCGUUCACGUCGCAGCCCCUGUCAGAUUCUGGCGAAUCUGCGUAUUCUGCUGUAUAUCUC,0.11
18,UAACAGGGAGCCACAGCAGAAGCGUUCACGUCGCAGCCCCUGUCAGAUUCUGGUGAAACUGCGAGUUCUGCCGUAUAUCUC,0.1
19,UAACAGGGAGCCACAGCAGAAGCGUUCACGUCGCAGCCCCUGUCAGAUUCUGGUGAACCUGCGAACUCUGCUGUAUAUCUC,0.13
20,UAACAGGGAGCCACAGCAGAAGCGUUCACGUCGCAGCCCCUGUCAGAUUCUGGUGAAUCAGCGAGUUCUGCUGUAUAUCUC,0.07
21,UAACAGGGAGCCACAGCAGAAGCGUUCACGUCGCAGCCCCUGUCAGAUUCUGGUGAAUCUGCGAACUCUGCUGUAUGCCUC,0.15
22,UAACAGGGAGCCACAGCAGAAGCGUUCACGUCGCAGCCCCUGUCAGAUUCUGGUGAAUCUGCGAAUACUGCUGUAUAACUC,0.18
23,UAACAGGGAGCCACAGCAGAAGCGUUCACGUCGCAGCCCCUGUCAGAUUCUGGUGAAUCUGCGAAUUCAGCAGUAUAUCUC,0.39

row,Variant,self-cleavage
1,UAACAGGGAGCCACAGCAGAAGCGUUCACGUCGCAGCCCCUGUCAGAUUCUGGUGAAUCUGCGAAUUCAGCCGUGUAUCUC,0.11
2,UAACAGGGAGCCACAGCAGAAGCGUUCACGUCGCAGCCCCUGUCAGAUUCUGGUGAAUCUGCGAAUUCCGCCGUAUAUCUC,0.08
3,UAACAGGGAGCCACAGCAGAAGCGUUCACGUCGCAGCCCCUGUCAGAUUCUGGUGAAUCUGCGAAUUCUGCUGAACAUCUC,0.37
4,UAACAGGGAGCCACAGCAGAAGCGUUCACGUCGCAGCCCCUGUCAGAUUCUGGUGAAUCUGCGAAUUCUGCUGUACAACUC,0.42
5,UAACAGGGCGCCCCAGCAGAAGCGUUCACGUCGCGGCACCUGUCAGAUUCUGGUGAAUCUGCGAAUUCUGCUGUAUAUCUC,1.05
6,UAACAGGGCGCCCCAGCAGAAGCGUUCACGUCGCAGCCCCUGUCAGACCCUGGUGAAUCUGCGAAUUCUGCUGUAUAUCUC,0.38
7,UAACAGGGCGCCGCGGCAGAAGCGUUCACGUCGCUGCCCCUGUCCGAUUCAGGUGAAUCUGCGAAUUCUGCUGUAUAUCUC,0.02
8,UAACAGGGCGCCGCAGCAGAAGCGUUCACGUCGCAGCCCCUGUCCGAUUCCGGUGAAUCUGCGAAUUCUGCUGUAUACCUC,0.01
9,UAACAGGGCGCCGCAGCAGAAGCGUUCACGUCGCAGCCCCUGUCAGAUUCUGGUGAAUCUGCGAAUUCUGCUGUAUAUCUU,0.58
10,UAACAGGGCGCCUCAGCAGAAGCGUUCAUGUCGCAGCCCCUGCCAGACUCUGGUGAAUCUGCGAAUUCUGCUGCAUAUCUC,0.05
11,UAACAGGGCGCCACCGCAGAAGCGUUCACGUCGCGGCCCCUGUCAGAUUCAGGUGAAUCAGCGAUUUCUGCUGUAUAUCUC,0.05
12,UAACAGGGCGCCACCGCAGAAGCGUUCACGUCGCAGCCCCUGUCAGAUUCCGGUGAAUCUGCGAAUUCUGCUGUAGAUCUC,0.34
13,UAACAGGGCGCCACGGCAGAGGCGCUCACGUCGUAGCCCCUGUCAGAUUCUGGUGAAUCUGCGAAUUCUGCUGUAUAUCUC,0.05
14,UAACAGGGCGCCACGGCAGAAGCGUUCACGUCGCAGCCCCUGUCAGAUUCUGGUGAAUCUGCUAAUUCUGCUGUAUCUCUC,0.28
15,UAACAGGGCGCCACAGCGGAAGCGUCCACGUCGCAGCCCCUGUCAGAUUCUGGUGAAUCUGCGAGUACUGCUGUAUAUCUC,0.03
16,UAACAGGGCGCCACAGCAGGAGCGUUCACGUCGCAGCCCCUGUCAGACUCUGGUGUAUCUGCGAAUUCUGCUGUAUAUCUC,0.24
17,UAACAGGGCGCCACAGCAGUAGCGUUCGCGUCGCAGCCCCUGUCAGAUUCUGGCGAAUCUGCGAAUUCUGCAGUAUAUCUC,0.11
18,UAACAGGGCGCCACAGCAGUAGCGUUCACGUCGCAGCCCCUGUCAGUUUCUGGUGAAUCUGCGAAUUCUGCUGUAUAUCUC,0.12
19,UAACAGGGCGCCACAGCAGUAGCGUUCACGUCGCAGCUCCUGUCAGAUUCUGGUGAAGCUGCGAGUUCUGCUGCAUACCUC,0.02
20,UAACAGGGCGCCACAGCAGUAGCUUUCACGACGCAGCCUCUGUCAGAUUCCGGUGAACCUGCGAAUUCUGCUGUAUAUCUC,0.02
21,UAACAGGGCGCCACAGCAGUAGCGAUCACGUCGCGGCCCUUGUCAGAAUCUGGUGAAUCUGCGAAUUCUGCUGUAUAUCUC,0.04
22,UAACAGGGCGCCACAGCAGUAGCGUUCACGUCGCAGCCCCUGUCAGAUUCUGGUGAAUCUGCGAAUUCAGCUGUAUAUCUC,0.04
23,UAACAGGGCGCCACAGCAGAGGCGAUCACGUCGCAGCCCCUGUCUGUUUCUGCUGAAUCUGCGAAUUCUGCUGUAUAUCUC,0.05

row,Variant,self-cleavage
1,UAACAGGGCGCCACAGCAGAGGCGUUCACGUCGCAGCCCCUGUCAGAUUCUGGUGAACCUGCGAAUUCUGCUGUAUAUCUC,0.08
2,UAACAGGGCGCCACAGCAGAUGCGUUCACGUCGCAGCCCCUGACAGAUUCUGGUGAAUCUGCGAAUUCUGCAGUAUGUCUC,0.18
3,UAACAGGGCGCCACAGCAGAAGCGUUCGCGUCGCAGCCCCUGUCAGAUUCUGGUGGAUCUGCGAAUUCUGCUGUAUAUCUC,0.4
4,UAACAGGGCGCCACAGCAGAAGCGUUCGCGUCGCAGCCCCUGUCAGAUUCUGGUGAAUCUGCGAAUCCUGCUGUAUAUCUC,0.1
5,UAACAGGGCGCCACAGCAGAAGCGUUCUCGUCGCAGCCCCUGUUAGAUUCUGGUGAAUCUGCGAAUUCCGCUGUAUAUCUC,0.13
6,UAACAGGGCGCCACAGCAGAAGCGUUCACGUCGCAGCCCCUGUCAGAUUCUGGUGAAUCUGCGGACUCUGCUGAAUAUCUC,0.22
7,UAACAGGGCGCCACAGCAGAAGCGUUCACGUCGAAGCCCACGUCAGAUUCUGGUGAAUCUGCGAAUUCUGCUGUAUAUCUC,0.04
8,UAACAGGGCACCACAGCAGAAGCGCUCACGUCGCAGCCCCUUUCAGAUUCUGGUGUAUCUGCGAAUUCAGCUGUAUAUCUC,0.05
9,UAACAGGGCACCACAGCAGAAGCGUUCACGUCGCAGCCCCUGUCAGAUUCUGGUGAAUCUGCGAAUUCUGCAGUAUAUCUC,0.09
10,UAACAGGGCUCCACAGCAGAAGCGUUCACGUCGCAGCCCCAGUCAGAUUCUGGUGAUUCUGCGAGUUCUGCUGUAGAUCUC,0.09
11,UAACAGGGCUCCACAGCAGAAGCGUUCACGUCGCAGCCCCUGUCAGAUUCUGGUGAAUCUGCGAAUCCUGCUGUAUAUCUC,0.15
12,UAACAGGGCGCCACAGCAGAAGCGUUCACAUCGCAGCCCCUGUCAGAUUUUGGUGGAUCUGCGGAUUCAGCUGUAUAUCUC,0.03
13,UAACAGGGCGCCACAGCAGAAGCGAUCACGUCGCAGCCCCUGUCAGAUUCUGGUGAAUCUGCGAACUCUGCUGUAUAUCUC,0.05
14,UAACAGGGCGCCACAGCAGAAGCGCUCACGUCGCAGCCCCUGUCUGAUUCUGGUGAAUCUGCGAAUUCUGCUGUAUAUCUC,0.23
15,UAACAGGGCGCCACAGCAGAAGCGCUCACGUCGCAGCCCCUGUCAGAUUCUGGUGAAUCUGCGAAUUUUGCUGUAUAUCUC,0.49
16,UAACAGGGCGCCACAGCAGAAGCGCUCACGUCGCAGCCCCUGUCAGAUUCUGGUGAAUCUGCGAAUUCUGCUGUAUAGCUC,0.19
17,UAACAGGGCGCCACAGCAGAAGCGUCCACGUCGCAGCCCCUGUCAGAUUCUGGUGAUUCUGCGAAUUCUGCUGUAUAUCUC,0.18
18,UAACAGGGCGCCACAGCAGAAGCGUCCACGUCGCAGCCCCCGUCAUAUUCUGGUGGAUCUGCGAAUUCUGCUGUAUAUCUC,0.07
19,UAACAGGGCGCCACAGCAGAAGCGUCCACGUCGCAGCCCCUGUCAGAUUCUGGUGAAUCUGCGAAUUCUGCGGUAUAUCUC,0.21
20,UAACAGGGCGCCACAGCAGAAGCGUUCACGACGCAGCCCCUGUCAGAUUCUGGUGAAUCUGCGAAUCCUGCUGUAUAUCUC,0.06
21,UAACAGGGCGCCACAGCAGAAGCGUUCACGCCGCAGCCCCUGUCAGAUUCUGGUGGAUCUGCGAAUUCUGCCGUAUAUCUC,0.11
22,UAACAGGGCGCCACAGCAGAAGCGUUCACGCCGCAGCCCCUGCCAGAUUCUGGUGAAUCUGCGAAUUCUGCCGUAUAUCUC,0.19
